Data from publication PMC12136788.
The list shows a part of the results.

B1: chr13:106491261:106491362:-|3pUTR|ENSG00000125266|msi1|total|mutant (ssRNA)
RNA: GGGAGUUCUACAGUCCGACGAUCACAAUAAUGAGAGCAAAUGCAAAAAUAACCAAGUCCUCCGAAGGCAUCUCACGGAACCGCCGACCCGGAAGUACGAGCCCCACAGAGCAGGAAGCCGAUGUGACUGCAUCAUAUAUUUAACAACAGAGGAUUGAGCAUCA
B2: chr16:66769962:66770309:-|CDS|ENSG00000249961|control|control|control (ssRNA)
RNA: GGGAGUUCUACAGUCCGACGAUCCUCCAUGCAGAUCGGAUUGGUCGAGGUAGCAAAGCAGAAGAUGAGGAUAAAAGCCAUUCUAGACAGUUACAGAGUUAUAAGUCCCAUGGAGUCAUGUCUAAAGCAUGUACAAAUGAUGACCAACAGAGGAUUGAGCAUCA
B3: chr2:224001733:224001845:-|CDS|ENSG00000135919|unk|FALSE|bound_elsewhere (ssRNA)
RNA: GGGAGUUCUACAGUCCGACGAUCGGCCUCUGUGACGCUGCCUUCCAUCUGCUCCCACUUCAAUCCUCUGUCUCUCGAGGAACUAGGCUCCAACACGGGGAUCCAGGUUUUCAAUCAGAUUGUGAAGUCGAGGCCUCAUGACAACAACAGAGGAUUGAGCAUCA
B4: chr17:27756765:27757353:-|three_prime_utr|ENSG00000007171|control|control|control (ssRNA)
RNA: GGGAGUUCUACAGUCCGACGAUCCAAGUCUUAUUUCCUCAACGUUGCUCCCCAUCAAGCCCUUUACUUGACCUCCUAACAAGUAGCACCCUGGAUUGAUCGGAGCCUCCUCUCUCAAACUGGGGCCUCCCUGGUCCCUUGGAGCAACAGAGGAUUGAGCAUCA
B5: ENSG00000070961:be:win_1801|CDS|ENSG00000070961|bound_else_gene|NA|bound_elsewhere_windowed (ssRNA)
RNA: GGGAGUUCUACAGUCCGACGAUCAAGGGUGCAUCUGAGAUAAUUCUGAAAAAGUGUUUCAAAAUCUUGAGUGCUAAUGGUGAGGCAAAAGUAUUCAGACCAAGGGACCGUGAUGAUAUUGUAAAAACUGUGAUUGAACCGAUGCAACAGAGGAUUGAGCAUCA
B6: chr15:67202635:67202736:-|3pUTR|ENSG00000103591|msi1|total|mutant (ssRNA)
RNA: GGGAGUUCUACAGUCCGACGAUCUGCCAAAAUUGCCCUUAUCAUGUUGGCUGCCUGACUUGUUUACCGGGUCCCCUUAAUUUCCGUUUUCCGCCGGAGGUUAAGGAGAAAUCUUUUUUUUCCUCAGUAUAUUGUAAGAGAGUGCAACAGAGGAUUGAGCAUCA
B7: chr12:64128047:64128160:+|CDS|ENSG00000196935|unk|total|mutant (ssRNA)
RNA: GGGAGUUCUACAGUCCGACGAUCGGCAGCCUGACCAACAUCAGCCGGCACGACUCCCUCAAGAAGAUCGACAGCCCUCCCAUCCGAAGGUCCACGUCAUCAGGGCAAUACACGGGCUUCAAUGACCACAAGCCACUGGACCCACAACAGAGGAUUGAGCAUCA
B8: ENSG00000067955:stop:overlap|stop_codon|ENSG00000067955|stop_codon|NA|stop_codon (ssRNA)
RNA: GGGAGUUCUACAGUCCGACGAUCAAAUGGAGGUGAGAGUUUCACAGCUGCUGGCAGUAACUGGCAAGAAGACAACAAGACCCUAGUCCUGGUUCCAAUUUAGGUGGUGGUGAUGACCUCAAACUUCGUUAAUUAAUAGCACAGCAACAGAGGAUUGAGCAUCA
B9: chr12:133204733:133204837:+|3pUTR|ENSG00000090612|unk|FALSE|unique (ssRNA)
RNA: GGGAGUUCUACAGUCCGACGAUCCAAAAAGAUAGUAGACAAUACACAGGAAAACUGAAUUUAGUAACCACUCUGAAAAUUUUUAGCAGCAAGUCAUACCUUUUUUUAAAAAGUUCAUACAGGUGAGGAACCAUGUUAAACGUUCAACAGAGGAUUGAGCAUCA
B10: chr5:149857952:149860894:-|three_prime_utr|ENSG00000132915|control|control|control (ssRNA)
RNA: GGGAGUUCUACAGUCCGACGAUCACCACCCUUUCCUGGGAAGAGAUGACUCAAGCCAGUGGAAGACCACACACCUUGAGAAGUAGAAGAGUCAUAGGAUUUGAAAGCUGUUAGAGAAUUUAGCUUCCAGGACUGUUCAAUCUUCAACAGAGGAUUGAGCAUCA
B11: chr10:116672031:116672132:-|3pUTR|ENSG00000165868|msi1|total|mutant (ssRNA)
RNA: GGGAGUUCUACAGUCCGACGAUCCCUUUCCUGCCUUGCAUUAAUGCUAUCUCCCUGUGUACUGUUUCUCUUAAAUGAGCAGACCGAAAUCUGCAGUGUUGGCAGACCGGUGAUGGAGAGGAUGAUAAUUUUAUCUUCUGGCCACAACAGAGGAUUGAGCAUCA
B12: chr14:92797766:92797867:+|CDS|ENSG00000066455|msi1|total|mutant (ssRNA)
RNA: GGGAGUUCUACAGUCCGACGAUCCAUUUUGUGCGAAGAAAAAAGUCAGAACCUGAUGAUGAGCUGCUGUUUGAUUUUCUUAACCGUUCACAGAAGGAGCCUACCGGGAGGGUGGAAAUCAGAAAGGAAAAAGGCAAGACACCUCAACAGAGGAUUGAGCAUCA
B13: chr1:65389253:65389354:+|CDS|ENSG00000116675|unk|total|mutant (ssRNA)
RNA: GGGAGUUCUACAGUCCGACGAUCGUCCGAUGCAUGUGAUGUACCAGAAAAAUAUCCUCAGCUAUUUCAGGUGACACUGGAUGCCGAACUACAGCCCCAUGACAAAGUAACCGACUUAACUCCACCAUGGGAACAUUACUGCACCAACAGAGGAUUGAGCAUCA
B14: chr12:103777333:103777434:-|3pUTR|ENSG00000111696|msi1|total|mutant (ssRNA)
RNA: GGGAGUUCUACAGUCCGACGAUCUCCUGAACAUUUACGGGCUAUGCAUUGGGAACUGCAGGGGCACAGUGAUGGGCAAAGAUCCGCUGCUUCCAGAAGGCUGAUUUCGUGGGCUCCACAAUGGUAAAACGCUGCUGUGAGUGGCAACAGAGGAUUGAGCAUCA
B15: chr8:94832020:94832135:+|CDS|ENSG00000164941|unk|total|mutant (ssRNA)
RNA: GGGAGUUCUACAGUCCGACGAUCGGUACCCGAAGCAGCCCUAAAAUUAAACAAGGAUCUUUAUGUCCAUACGAUGAGAACUCCCGAUUUAUUGGCCAUGGAACCAGGCAUGGUAAAUGGAGAAACUGAGAGUUCUACUGCUGGCAACAGAGGAUUGAGCAUCA
B16: chr18:68676332:68676434:-|3pUTR|ENSG00000166479|msi1_unk|total|mutant (ssRNA)
RNA: GGGAGUUCUACAGUCCGACGAUCAUCAAGAUUAUGAGGUUAAAAAUAAUGUGGUUUUAUACCGCACCGUGGUUUUAUUUUGUCCGUUAUUUUUAAAGGAGAAGAAAUGUUACUUUUUAACUUUAUACUCAGUUGCAUUAUCAUCAACAGAGGAUUGAGCAUCA
B17: ENSG00000107863:be:win_2001|CDS|ENSG00000107863|bound_else_gene|NA|bound_elsewhere_windowed (ssRNA)
RNA: GGGAGUUCUACAGUCCGACGAUCAAGGACUGACAGUGCCCCCGAUCAGCAAGUGGAGACUGGGAAAUCCCCCUCUUUAUCUGGAGCCUCUGCCAAGCCUGCCCCUCAGUCGAGUGAAAACGCUGGUACUUCAGAUUUAGAACUCAACAGAGGAUUGAGCAUCA
B18: chr1:112912765:112912828:-|3pUTR|ENSG00000155380|msi1_unk|total|mutant (ssRNA)
RNA: GGGAGUUCUACAGUCCGACGAUCUUAAGGUUUGCAAAUUAAAAAGGGCCAGAAAAAUUUGGCACCAGGCAAACGAAUAAAGACCGGAUUGGGAAAGAAGUUGCUAAGUGUGCUCCGUUUUAAUAAGUAAUUCCUUCUCUUUUUCAACAGAGGAUUGAGCAUCA
B19: chr1:228098371:228098472:+|3pUTR|ENSG00000143761|msi1_unk|total|mutant (ssRNA)
RNA: GGGAGUUCUACAGUCCGACGAUCUGUGUUGAAAUCCAUUUUGGUGGUUGGUUUUUAACCCAAACUCAGUGCAUUUUUUAAAACCGUUAAGAAUCCAAGUCGAGAACACUUGAACACACAGAAGGGAGACCCCGCCCCGCACCGCAACAGAGGAUUGAGCAUCA
B20: chr4:100395340:100398373:-|three_prime_utr|ENSG00000164035|control|control|control (ssRNA)
RNA: GGGAGUUCUACAGUCCGACGAUCGGGGCUCUCCUGUUCUCUCACAUUUAAAAAUUCCAUUACUCCAUUUACAGGAGCGUUCCUAGGAAAAGGAAUUUUAGGAGGAGAAUUUGUGAGCAGUGAAUCUGACAGCCCAGGAGGUGGCAACAGAGGAUUGAGCAUCA
B21: chr16:46660370:46660459:-|3pUTR|ENSG00000069329|msi1_unk|total|mutant (ssRNA)
RNA: GGGAGUUCUACAGUCCGACGAUCAAAAGGAAACCGCUCACCAUACUCCUUUCCAUGUACAUCCAGUGAGGGUUUUAUUACGCCCGGUUUCCCUUCCACCGAUUGUGCCUUUCAGAAAUGCUGAGGCCGGUUUCCCAUUUCUUACAACAGAGGAUUGAGCAUCA
B22: chr4:113382420:113382521:+|3pUTR|ENSG00000145362|msi1|total|mutant (ssRNA)
RNA: GGGAGUUCUACAGUCCGACGAUCUCUUCAGGUCUUCCGAUCUUGGACAAGUUGGCAGGGUAUUUUAAAAGCUAUAACUACUGCCGUUUUCCAGUUUUCAUUGCUGCUUCCGCAAACCACGCUGUCUUACAGUGGUACUUUCUUCAACAGAGGAUUGAGCAUCA

What follows are binders tested against MSI1 full-length (mouse, UniProt Q61474 1-362) (assay: nsRBNS (natural sequence RNA bind-n-seq); RBNS binding buffer (assumed for nsRBNS): 25 mM Tris pH 7.5, 150 mM KCl, 3 mM MgCl2, 0.01% Triton X-100, 500 ug/ml BSA, 20 U/ml SUPERase-In, 4 C; UNK is unkempt and MSI1 is Musashi-1; names of the RNAs are library labels; protein concentration not given here; high values mean tight binding).
Chain of UniProt Q61474 (Q61474 whole entry): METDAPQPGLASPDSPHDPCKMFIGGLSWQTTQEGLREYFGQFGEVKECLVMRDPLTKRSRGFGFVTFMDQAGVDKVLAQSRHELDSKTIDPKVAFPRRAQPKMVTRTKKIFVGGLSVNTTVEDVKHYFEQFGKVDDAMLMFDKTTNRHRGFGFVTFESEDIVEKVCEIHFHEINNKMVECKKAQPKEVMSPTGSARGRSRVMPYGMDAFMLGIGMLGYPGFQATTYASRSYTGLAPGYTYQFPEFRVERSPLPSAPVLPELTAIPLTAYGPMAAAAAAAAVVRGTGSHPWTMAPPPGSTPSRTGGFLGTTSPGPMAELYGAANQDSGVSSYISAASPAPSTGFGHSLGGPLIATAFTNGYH

Binder	binding signal
B1	0.694 enrichment R
B2	1.22 enrichment R
B3	0.435 enrichment R
B4	0.402 enrichment R
B5	0.407 enrichment R
B6	0.438 enrichment R
B7	0.423 enrichment R
B8	0.854 enrichment R
B9	3.58 enrichment R
B10	1.85 enrichment R
B11	0.355 enrichment R
B12	0.479 enrichment R
B13	0.51 enrichment R
B14	0.553 enrichment R
B15	0.608 enrichment R
B16	0.295 enrichment R
B17	0.641 enrichment R
B18	0.277 enrichment R
B19	0.398 enrichment R
B20	0.493 enrichment R
B21	0.39 enrichment R
B22	0.277 enrichment R
